In article PMC4336329 (PLoS ONE, 2015):
In all, about 310,000 compounds went through this assay and about 14,000 (4.5%) showed an effect of 50% or more. Effects have a minus sign here. The list shows a part of the results.

Each compound was assayed against human ether-à-go-go-related gene (hERG) potassium channel (human, UniProt Q12809) (assay: primary screen, population patch clamp on CHO cells stably expressing hERG).
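Further: peak tail current of the secondary pulse compared with the same well before compound.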

Chain of human ether-à-go-go-related gene (hERG) potassium channel (Q12809 whole entry, looked up): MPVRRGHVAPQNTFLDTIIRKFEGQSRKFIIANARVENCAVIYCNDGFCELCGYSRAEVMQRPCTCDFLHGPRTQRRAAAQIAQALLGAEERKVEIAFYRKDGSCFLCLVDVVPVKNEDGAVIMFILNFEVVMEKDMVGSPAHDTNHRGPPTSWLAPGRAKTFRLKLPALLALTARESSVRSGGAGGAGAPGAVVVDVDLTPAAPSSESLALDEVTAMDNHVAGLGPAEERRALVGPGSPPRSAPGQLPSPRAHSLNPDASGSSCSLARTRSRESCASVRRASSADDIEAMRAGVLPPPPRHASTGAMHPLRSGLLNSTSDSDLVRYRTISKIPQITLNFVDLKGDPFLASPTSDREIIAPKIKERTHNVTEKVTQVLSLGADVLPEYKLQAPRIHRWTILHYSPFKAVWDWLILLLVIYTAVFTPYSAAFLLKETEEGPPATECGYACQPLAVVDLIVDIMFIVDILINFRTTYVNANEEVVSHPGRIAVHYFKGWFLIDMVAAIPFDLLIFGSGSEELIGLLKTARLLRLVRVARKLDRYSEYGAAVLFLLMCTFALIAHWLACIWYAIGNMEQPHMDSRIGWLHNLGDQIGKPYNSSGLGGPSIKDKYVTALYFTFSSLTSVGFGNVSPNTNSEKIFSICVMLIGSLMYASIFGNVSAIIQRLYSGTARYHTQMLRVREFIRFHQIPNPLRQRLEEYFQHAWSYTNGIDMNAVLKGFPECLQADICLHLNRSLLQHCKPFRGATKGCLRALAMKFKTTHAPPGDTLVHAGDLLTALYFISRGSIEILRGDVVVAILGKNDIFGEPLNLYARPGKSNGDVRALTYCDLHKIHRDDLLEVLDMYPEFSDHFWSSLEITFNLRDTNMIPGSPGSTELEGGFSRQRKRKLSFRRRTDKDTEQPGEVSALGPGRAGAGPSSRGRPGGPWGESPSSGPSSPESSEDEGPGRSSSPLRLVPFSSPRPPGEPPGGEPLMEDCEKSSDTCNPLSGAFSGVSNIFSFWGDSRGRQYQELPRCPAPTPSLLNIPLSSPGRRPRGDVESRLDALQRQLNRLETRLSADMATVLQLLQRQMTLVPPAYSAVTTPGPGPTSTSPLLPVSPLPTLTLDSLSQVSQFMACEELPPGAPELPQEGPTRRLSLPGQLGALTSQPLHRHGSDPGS

SMILES	hERG current change (%, negative = inhibition) at 10uM [%]
CCN(CC)C(=O)CCCc1c[nH]c2ccccc12	20
COC(=O)CSc1nc(N)nc(C)c1Cl	-13.6
CO[C@@H]1O[C@@H]2COC(c3ccccc3)O[C@@H]2[C@@H](OC)[C@@H]1O (stereo partly drawn)	20.5
O=C1C=CN(Cc2ccccc2)CC1	0.863
O=C(O)C1=NOC(CNC(=O)c2ccccc2Cl)C1 (stereo not drawn)	27.2
Cc1ccc(CC(=O)Nc2cc(C)ccn2)cc1	11.2
CCc1ccc(NC(=O)c2ccnc(C(C)(C)C)c2)cc1	-4.42
Fc1ccc(Br)cc1/C=N/N1CCN(c2ccccc2)CC1	8.46
O=C(Cn1cnc2c(oc3ccccc32)c1=O)N1CCCc2ccccc21	-15.4
CCOc1ccccc1NC1=NC2CS(=O)(=O)CC2S1 (stereo not drawn)	21.1
Cc1noc(/C=C/c2ccco2)c1S(=O)(=O)N1CCC(C(=O)N2c3ccccc3CC2C)CC1 (stereo not drawn)	-8.16
Cc1cc(=O)oc2cc(OCC(=O)N/N=C/c3ccccc3[N+](=O)[O-])ccc12	-33
Cc1ccc(CNC(=O)CC(C)S(=O)(=O)c2ccc3c(c2)NC(=O)CO3)cc1 (stereo not drawn)	-22.1
CS(=O)(=O)N(CC(=O)NCCSCc1cccc(Cl)c1)c1ccccc1F	-20.2
COc1ccc(Cl)cc1-n1c(=S)sc2c(=O)n(-c3ccc(F)cc3)c(SCC(=O)O)nc21	-42.9
COc1ccc2nc(Nc3nc(CSc4nc5ccccc5s4)cc(=O)[nH]3)nc(C)c2c1	-10.4
O=C(CN1C(=O)COc2ccccc21)N1CCOCC1	7.41
CN1/C(=C\C(=O)COC(=O)c2ccccc2O)C(C)(C)c2ccccc21	-3.1
COc1ccc(/C=N/Nc2nccnc2Cl)cc1	-12.6
CS(=O)(=O)Nc1cccc(C2=NN(C(=O)c3ccco3)C(c3ccco3)C2)c1 (stereo not drawn)	-2.88
CCOCc1nnc(NC(=O)c2cc(Cl)ccc2OC)s1	-17
O=C(NCCc1cccc(Cl)c1)c1cccnc1	-9.46
COc1ccccc1CNC(=O)COc1ccccc1OC	0.00358

SMILES	hERG current change (%, negative = inhibition) at 10uM [%]
Cc1nc2c(c(C)nn2-c2ccccc2)c(C)c1Cl	-9.16
Cc1oc2c(C)c(O)ccc2c(=O)c1-c1nncn1-c1ccccc1	15.3
Cc1ccc(C(NC(=O)NCCCN2CCOCC2)=C(Cl)Cl)cc1F	-11
O=C1Nc2ccccc2C12OCC1(CO2)COC2(OC1)C(=O)Nc1ccccc12 (stereo not drawn)	8.14
CC(C)(CO)Nc1nc(Cl)nc(NC2CCCCC2)n1	-17.6
Cc1cccc(-n2ncc3c2CCCC3NC(=O)CC(F)(F)F)c1C (stereo not drawn)	0.868
Cc1c(C(=O)C(=O)N2CCN(Cc3ccc4c(c3)OCO4)CC2)c2ccccc2n1C	-8.7
C=CCN1C(=O)CSc2ccc(C(=O)NCc3ccco3)cc21	-14.5
O=C(CSc1nnc2c(n1)[nH]c1ccccc12)NCc1ccco1	15.9
S=C(NCCc1ccncc1)Nc1ccccc1	18.6
CC(=O)Nc1ccc2c(c1)nc1n2CCOC1	5.37
CCc1nnc2c(N(C)C)nc3ccccc3n12	-13.9
O=C(COc1ccc(Nc2ccccc2)cc1)Nc1ccncc1	-30.1
O=[N+]([O-])c1ccc(N2CCCCCC2)c([N+](=O)[O-])c1	3.24
O=C(Nc1ccc(Cl)c(Cl)c1)C1C2C=CC3(O2)C1C(=O)N(CCN1CCCCC1)C3C(=O)NC1CCCCC1 (stereo not drawn)	-60.8
CN1CCN(/C=N/c2c(C#N)cnn2C)CC1	9.06
CCC(Oc1cccc(Cl)c1)C(=O)N1CCCN(C)CC1 (stereo not drawn)	0.544
COc1cccc(-c2cc(C(=O)NCCCn3ccnc3)c3ccccc3n2)c1	-71.8
Cc1ccc(CNC(=O)CS(=O)(=O)c2cn(CC(=O)N3CCOCC3)c3ccccc23)cc1	3
COc1ccc(S(=O)(=O)Nc2ccc3c(c2)n(C)c(=O)n3C)cc1OC	12.1
CC(C(=O)Nc1ccc(F)c(F)c1F)N(C)CC(=O)Nc1ccccc1Br (stereo not drawn)	-20
COc1cc(C2SCC(=O)Nc3c2c(C)nn3-c2ccccc2)cc(OC)c1OC (stereo not drawn)	-2.14
Cc1cc(NS(=O)(=O)c2ccc(OCCNS(C)(=O)=O)cc2)no1	6.4

SMILES	hERG current change (%, negative = inhibition) at 10uM [%]
COc1ccc(OCC(=O)N/N=C(\C)c2cc3ccccc3o2)cc1	-34.5
Cn1c(CNC(=O)c2ccccc2F)nnc1SCC(=O)N1CCN(c2ccccc2)CC1	-8.2
Cc1ccc(N(C(=O)Cn2nnc(-c3cccs3)n2)C(C(=O)NC2CCCC2)c2ccncc2)cc1 (stereo not drawn)	7.48
Cc1ccc(C)c(N(C(=O)CS(=O)CC(=O)Nc2ccc3c(c2)OCO3)C(C)C(=O)NC2CCCC2)c1 (stereo not drawn)	-17.5
O=C(N/N=C/c1cccnc1)C1CCCN(S(=O)(=O)c2ccccc2)C1 (stereo not drawn)	-36.1
Cc1c(C(=O)O)sc2nc(/C=C/c3cccc(F)c3)[nH]c(=O)c12	14.2
CC1(C)CC(=O)c2cc(C(=O)N3CCN(CCO)CC3)c(=O)n(-c3ccc(Cl)cc3)c2C1	-0.258
Cc1cc(=O)n(C)c(=O)n1CCCNc1ccccc1.O=C(O)C(=O)O	-4.01
CC(C)Oc1ccc(C2CC(=O)N(c3cccc(Br)c3)C2=O)cc1 (stereo not drawn)	16.5
CCOC(=O)COc1ccc2c(=O)c(-c3ccccc3OC)coc2c1	5.1
COc1ccc(Cl)cc1C(=O)Nc1ccc(S(=O)(=O)N2CCCC2)cc1	27.6
COc1ccc(C(=O)C[n+]2ccc(N)c(C)c2C)cc1.[Br-]	14.9
Cc1ccccc1-c1nc(CN2CCC(C(=O)NC3CC3)CC2)c(C)o1	-33
Cc1ccc(S(=O)(=O)N(c2nc(N(C)C)nc(N(C)C)n2)n2cnnc2)cc1	20.4
COc1cc(CCCN2C(=O)C(=O)NC[C@H]2Cc2cccc3ccccc23)cc(OC)c1OC	-19.6
O=C(Nc1ccccc1Cl)NC1(C(=O)NCC2CCCO2)CCCCC1 (stereo not drawn)	18.8
O=C1/C(=C\c2ccc(-c3ccccc3[N+](=O)[O-])o2)C(c2ccccc2)=NN1c1ccccc1	6.53
CCOc1ccc(S(=O)(=O)n2ccc(C)n2)cc1	10.9
Cc1oc2c(c(=O)c1C)C(=O)CC(c1ccccc1)C2 (stereo not drawn)	-23.7
CCCCN1CNC(=S)N(c2ccccc2OCC)C1	8.18
CC(C)CC1NC(=O)N(CCCCN2C(=O)c3ccccc3C2=O)C1=O (stereo not drawn)	-2.07
COC(=O)C(Sc1nc(C)cc(C)c1C#N)c1ccccc1 (stereo not drawn)	-10.6
CCN1CCN(C(=O)CS(=O)(=O)Cc2nc(-c3ccccc3C)oc2C)CC1	-0.141

SMILES	hERG current change (%, negative = inhibition) at 10uM [%]
COc1cc(/C=N/NC(=O)C(NC(=O)c2ccccc2)c2n[nH]c(=O)c3ccccc23)ccc1OCC(N)=O (stereo not drawn)	5.88
COc1ccccc1-n1cnnc1SCc1csc(-c2ccccc2)n1	-20.9
Cc1cccc(C)c1OCC(=O)Nn1c(C)nc2ccccc2c1=O	-25
O=C(/C=C/c1ccccc1)NC(=S)Nc1ccc(CN2CCOCC2)cc1	-18.9
COCCCN1CN(S(=O)(=O)c2cccs2)c2nc3ccccc3nc21	-23.7
Cc1cccc2sc(NC(=O)CN(C)S(=O)(=O)c3ccc(Br)s3)nc12	-2.49
O=C(Nc1ccc(NC(=O)c2ccccc2Cl)nc1)c1ccncc1	-10.3
O=C(c1cccc(F)c1)N1CCN(c2cccc(C(F)(F)F)c2)CC1	-18.7
O=C(NC(=S)NC1CCCC1)c1ccccc1	3.8
COc1cc(CO)cc(Br)c1OCC(=O)O	24.9
FC(F)(F)C(Oc1nc(Nc2ccc(Cl)cc2)nc(N2CCOCC2)n1)C(F)(F)F	12.9
CCOC(=O)N1CCN(c2ccc(Cl)c(Cl)c2)CC1	-11.1
COc1ccccc1NC(=S)NCc1ccccc1	8.62
O=C(NNC(=O)C1COc2ccccc2O1)c1cccc([N+](=O)[O-])c1 (stereo not drawn)	-7.35
COc1ccccc1N(CC(=O)NCCSCc1ccccc1)S(C)(=O)=O	4.03
O=[N+]([O-])c1ccc2c(c1)C(O)n1ncnc1S2 (stereo not drawn)	26.6
O=[N+]([O-])c1cccc(-c2c(-c3ccccc3)ncc3cc(F)ccc23)c1	0.428
Cc1n[nH]c(C)c1CCC(=O)N/N=C/C=C/c1ccccc1	-23.2
COc1ccc2c(C=O)cn(C)c2c1	16.7
CCN(CC)C(=O)CSc1nc2ccccc2c(=O)[nH]1	12.5
COc1cccc(CC2(CO)CCCN(Cc3cc(F)ccc3-n3cccn3)C2)c1 (stereo not drawn)	-77.3
